# According to PubChem BioAssay AID1347073 (National Center for Advancing Translational Sciences (NCATS), 2019):
# Hit rate of the full screen: of about 45,000 compounds, about 200 (0.44%) were called active. Not shown: some 7% with an inconclusive outcome. Calls come from the whole dose curve; as a rule, active = well fitted activation curve with a large enough effect; inconclusive = small, poorly fitted or top-dose-only effect; inactive = no such curve, though single readings can be large or run the other way. This is one part of the list. Peptide text beside a SMILES is read from it. * marks the point of attachment. Boc = CC(C)(C)OC(=O)*; Bn = c1ccc(C*)cc1; NHNH2 = NN*
# Experiment: qHTS of TDP-43 Inhibitors: NCGC Sytravon Library Screen; note: 0% is about no effect; nearly all actives have a fitted effect of over 55% in size
# Settings: yeast TDP-43 toxicity rescue, BacTiter-Glo growth, 24 h; series mostly up to 46.1 µM; growth rescue (activation): at the top concentration
# How it was run: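 TDP-43-expressing yeast, pregrown in raffinose, seeded at OD600 0.02 in galactose medium with compound for 24 hr at 30 deg C. Growth read by BacTiter-Glo luminescence, so rescue of toxicity appears as activation.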
row,Structure (SMILES),growth rescue (activation)
1,C/C(CC(=O)Nc1cc(C)ccn1)=N\NC(=O)c1cccc(F)c1,inactive: -9.95%
2,S=C(Nc1cccnc1)NC1CCCC1,inactive: 2.68%
3,Cc1c(CC(=O)NCCC(=O)O)c(=O)oc2cc3occ(-c4ccccc4)c3cc12,inactive: 10.5%
4,C=CCOc1ccc(/C=N/N2C(=O)C(CC(=O)Nc3ccc(F)cc3F)SC2=NC)cc1 (stereo unspecified),inactive: 29.2%
5,CN(C)/C=N/C(=S)Nc1ccc(Br)cc1F,inactive: 28%
6,COc1ccc(S(=O)(=O)N2CCc3ccccc32)cc1C(=O)NCc1ccco1,inactive: 7.25%
7,O=c1[nH]c(C2CCCN(S(=O)(=O)c3ccccc3)C2)nc2c1nnn2Cc1cccc(Cl)c1 (stereo unspecified),inactive: -6.67%
8,CC(=O)Nc1ccccc1C(=O)N1CCN(Cc2ccccc2)CC1,inactive: -4.79%
9,CC1(C(=O)OCC(=O)Nc2ccccc2Cl)CC1(Cl)Cl (stereo unspecified),inactive: 6.01%
10,CCOc1cc(NC(=S)NCc2ccco2)c(OCC)cc1NC(=O)c1ccco1,inactive: 14.2%
11,COC(=O)C1C(c2ccccc2)NC(=O)NC1(O)C(F)(F)Cl (stereo unspecified),inactive: 7.05%
12,O=C(CN1C2CCCC1CC(NC(=O)C1CCCCC1)C2)Nc1ccccc1 (stereo unspecified),inactive: 3.14%
13,O=C(NCc1cccs1)C1CCN(S(=O)(=O)c2cccc([N+](=O)[O-])c2)CC1,inactive: 6.17%
14,Cc1nc2c(C(=O)NCc3ccccc3)c[nH]n2c(=O)c1Cc1ccccc1Cl,inactive: -2.65%
15,CC(C)Nc1nnc(SCC(=O)/C=C2\N(C)c3ccccc3C2(C)C)s1,inactive: 26%
16,Cc1ccc(Nc2ccc(C(N)=O)cc2[N+](=O)[O-])cc1,inactive: -18.2%
17,O=C(CN1C2=NCCCN2c2ccccc21)c1cccc(Br)c1,inactive: 0.808%
18,O=c1[nH]c(CSc2ncc(C(F)(F)F)cc2Cl)nc2cc(C(F)(F)F)ccc12,inactive: 33.6%
19,CN(C)Cc1ncccc1Oc1nc2cc(-c3cccc(Cl)c3)sc2c(=O)n1C,inactive: 20.1%
20,COc1ccc(NS(=O)(=O)c2cc(NC(=O)[C@H](C)NC(N)=O)ccc2N2CCCC2)cc1,inactive: 15.2%
21,c1ccc(NCc2ccccn2)cc1,inactive: -8.87%
22,CCCCSc1nc2ccccc2[nH]1,inactive: 2.36%

row,Structure (SMILES),growth rescue (activation)
1,Cc1c(-c2ccc(Cl)cc2)[n+](=O)c2c(n1[O-])CCCC2,inactive: -16.8%
2,O=C(NCCN1CCNC1=O)c1ccc2sc([C@H]3C[C@H](O)[C@@H](CO)O3)nc2c1,inactive: 2.14%
3,c1cc(CN2CCN(C3CCCCCC3)CC2)ccn1,inactive: -10.6%
4,O=S(=O)(c1ccc(F)cc1)N1CCN(C(=S)NCc2ccco2)CC1,inactive: -6.85%
5,O=C(COC(=O)C1CCCCC1)NCCc1ccccc1,inactive: 13.7%
6,COC(=O)C(C)(C)ONC(=O)Nc1ccccc1[N+](=O)[O-],inactive: 24.4%
7,CC(C)c1ccc(NC2CCCN(C(=O)CCN3CCCC3=O)C2)cc1 (stereo unspecified),inactive: 3.3%
8,COc1cc(OC)c(OC)cc1/C=C1\CCC/C(=C\c2cc(OC)c(OC)cc2OC)C1=O,inactive: 9.79%
9,CCn1c(SCC(=O)N2c3ccccc3CCc3ccccc32)nnc1-c1ccc(OC)cc1,inactive: 1.04%
10,CCOC(=O)c1ccccc1NC(=O)c1cncc(Br)c1,inactive: 36.6%
11,COc1ccc(Cc2nnc(NS(=O)(=O)c3ccc(Cl)cc3)s2)cc1OC,inactive: 4.82%
12,CC(=O)Nc1sc(-c2ccc(Cl)cc2)nc1-c1ccccc1,inactive: 0.536%
13,COc1ccc(-c2nc3ccc(N4CCCC4)cc3c(=O)[nH]2)cc1OC,inactive: 21.2%
14,CCOc1ccccc1-c1cc(-c2ccc(OC)cc2)nc2c1c(=O)n(C)c(=O)n2C,inactive: -5.26%
15,O=C(C(=O)N1CCOCC1)c1c[nH]c2ccccc12,inactive: 5.56%
16,O=C(O)C1CC=CCC1C(=O)NC1CCCCC1 (stereo unspecified),inactive: 10.8%
17,Cc1cc(CNC(=O)COc2cc(F)ccc2[N+](=O)[O-])c2ccccc2n1,inactive: 10.5%
18,CC1CN(C(=O)C(Sc2ccccc2)c2ccccc2)CC(C)O1 (stereo unspecified),inactive: 4.83%
19,COC(=O)c1ccc(COc2cccnc2[N+](=O)[O-])cc1,inactive: 22.9%
20,CC1(C)CC(N2CCN(Cc3ccccc3)CC2)=CC(=[N+]2CCCCC2)C1,inactive: -19.3%
21,COc1cccc(CNC(=O)C2CCC(=O)N(CC3CCCCC3)C2)c1OC (stereo unspecified),inactive: -7.72%
22,NC(=O)c1ccc(NC(=O)COC(=O)CC23CC4CC(CC(Br)(C4)C2)C3)cc1,inactive: -26.3%

row,Structure (SMILES),growth rescue (activation)
1,O=C(CCc1nnc(C2CCCCC2)o1)N1CCC(Oc2cccnc2)CC1,inactive: 0.829%
2,COc1ccc(S(=O)(=O)NCC(=O)Nc2cccc(C)c2C)cc1OC,inactive: 4.58%
3,Cn1nc(-c2ccc(C(=O)NCCO)cc2)c2ccccc2c1=O,inactive: -18.8%
4,Cc1nnc(SCc2cc(=O)oc3cc(O)ccc23)n1Cc1ccccc1,inactive: 7.12%
5,O=C(COC(=O)/C=C/c1ccc(F)cc1)NCc1ccco1,inactive: 25.6%
6,CCOc1ccccc1NC(=O)CSc1c(C)n[nH]c1C,inactive: 24.8%
7,O=C(CS(=O)CC(=O)N(c1cccc(F)c1)C(C(=O)NC1CCCCC1)c1ccco1)Nc1ccc(F)cc1 (stereo unspecified),inactive: -7.73%
8,CCC(c1nnnn1C(C)(C)CC)N1CCN(c2ccccc2F)CC1 (stereo unspecified),inactive: -2.93%
9,COc1ccc(S(=O)(=O)N2CCC(C(=O)NCc3ccncc3)CC2)cc1Cl,inactive: -8.24%
10,Cc1ccc(S(=O)(=O)N2CCOCC2)cc1NC(=O)COc1ccccc1Cc1ccccc1,inactive: 21.7%
11,NC(=O)c1ccsc1NC(=O)COC(=O)CCOc1ccccc1,inactive: 17%
12,CCN(CC#CCC(O)(c1ccccc1)c1ccccc1)C(C)C,inactive: -7.27%
13,O=C(CSc1nnc(-c2ccccn2)o1)Nc1ccccc1F,inactive: 6.51%
14,CCOC(=O)c1c(NC(=O)c2cccs2)sc(C(=O)N2CCOCC2)c1C,inactive: 33.3%
15,COc1cc(NC(=O)C2=C(N3CCOCC3)/C(=C\c3ccc(Br)cc3)CC2)cc(OC)c1OC,inactive: -3.72%
16,CC(=O)c1cccc(NC(=O)C(C)OC(=O)c2cc(C)oc2C)c1 (stereo unspecified),inactive: 10.3%
17,Cc1ccc(NC(=O)CN2C(=O)NC3(CCCc4ccccc43)C2=O)c(C)c1 (stereo unspecified),inactive: -4.19%
18,O=C(Nc1ccc(-c2cn3ccccc3n2)cc1)c1cccs1,inactive: -21.2%
19,COc1ccc(COCC(O)CN(Cc2ccccc2)C(C)C)cc1OC (stereo unspecified),inactive: -2.7%
20,O=c1c2ccccc2nc(SCCN2CCOCC2)n1CCc1ccccc1,inactive: 9.49%
21,COc1ccc(NC(=O)c2ccc(-c3ccccc3)cc2)cc1NS(=O)(=O)c1ccc(F)cc1,inactive: 15.6%
22,CC(C)C(NC(=O)c1ccccc1F)C(=O)NCC(c1ccco1)N1CCCCC1 (stereo unspecified),inactive: -6.91%

row,Structure (SMILES),growth rescue (activation)
1,CC(O)(c1cccnc1)c1nc(-c2ccc3c(c2)OCO3)cs1 (stereo unspecified),inactive: -1.37%
2,O=C(O)C1CCN(C(=O)NC2CCCCC2)CC1,inactive: 20.4%
3,COCC(=O)N1CCC(Oc2ccc(C(=O)NCc3cc(C)n(C)n3)cc2)CC1,inactive: 2.22%
4,NNC(=O)[C@H](Cc1ccccc1)NC(=O)Nc1ccc2c(c1)OCCO2,inactive: -6.65%
5,COc1ccccc1-n1c(SCC(=O)NC2CCS(=O)(=O)C2)nc2cc([N+](=O)[O-])ccc21 (stereo unspecified),inactive: 8.73%
6,CC(C)CC(NC(=O)C(COCc1ccccc1)NC(=O)OC(C)(C)C)C(=O)NN (stereo unspecified) (Boc-Ser(Bn)-Leu-NHNH2; configuration not given here),inactive: 3.46%
7,CCCc1cc(C(=O)Nc2cc(Cl)ccc2O)no1,inactive: 10.4%
8,CCN1C(=O)c2cccc3c(S(=O)(=O)N4CCCC4C(=O)O)ccc1c23 (stereo unspecified),inactive: 3.65%
9,CCOC(=O)c1c(CN2CCOCC2)n(-c2ccccc2)c2cc(Br)c(O)c(CN(C)C)c12,inactive: 2.01%
10,CCOC(=O)CNC(=O)N1CCCC(CCC(=O)NCc2ccc(F)c(F)c2)C1 (stereo unspecified),inactive: 11.4%
11,COc1cc(C(O)c2nc(/C=C/c3ccc(C(F)(F)F)cc3)cs2)ccc1F (stereo unspecified),inactive: -67.1%
12,Cc1nnc(NC(=O)C(C)Sc2nnc(-c3ccco3)n2C(C)C)s1 (stereo unspecified),inactive: 6.45%
13,COc1cc(C(=O)NNC(=O)c2ccco2)cc(OC)c1OC,inactive: -27.4%
14,CC(C)CCOc1ccc(C(=O)NCC(c2ccco2)N(C)C)cc1 (stereo unspecified),inactive: 6.72%
15,Cc1ccc(C)n1-c1nnc(N2CCCC(C(=O)NCc3cccc(Cl)c3)C2)s1 (stereo unspecified),inactive: 5.82%
16,COc1ccc(C(NC(=O)C2CCN(CCOc3ccc(F)cc3)CC2)c2cccs2)cc1 (stereo unspecified),inactive: -1.24%
17,COc1ccc(CNC(=O)C2CCC(CNc3c(N4CCCCC4)c(=O)c3=O)CC2)cc1 (stereo unspecified),inactive: -7.87%
18,CSc1nc(-c2ccccc2)c(C#N)c(=O)n1C,inactive: 20.1%
19,Cc1c(C2=CCN(S(=O)(=O)c3ccc(Br)cc3)CC2)c2ccccc2n1C,inactive: -0.538%
20,COc1ccc(CCNC(=O)C23CCC(C)(C(=O)C2=O)C3(C)C)cc1OC (stereo unspecified),inactive: 1.89%
21,Cc1ccc(NC(=O)NC(=O)CSc2n[nH]c(N)n2)c(C)c1,inactive: -7.66%
22,O=[N+]([O-])c1cc(S(=O)(=O)N2CCCC2)ccc1NCCc1ccccc1,inactive: 13.9%

row,Structure (SMILES),growth rescue (activation)
1,Cc1nn(CC(=O)Nc2ccc3c(c2)oc2ccccc23)c(=O)c2ccccc12,inactive: 22.6%
2,C(=C\c1ccco1)/C1=NN(c2ccccc2)C(c2ccco2)C1 (stereo unspecified),inactive: -22.6%
3,CC(C)Oc1ccc(F)cc1-c1cc(C(=O)Nc2ccccc2)[nH]n1,inactive: 17.1%
4,CCOc1ccc(/C=N/Nc2ccc(Cl)nn2)c(O)c1,inactive: -1.47%
5,COc1cc(C(=O)Nc2ccc(S(=O)(=O)Nc3cc(C)on3)cc2)cc(OC)c1OC,inactive: -5.16%
6,Cc1c(Br)cccc1NC(=O)C1(C)CCN1CCc1ccccc1 (stereo unspecified),inactive: 1.27%
7,CC1=C(C)C(c2ccccc2)NC(=S)N1 (stereo unspecified),inactive: 16.1%
8,Cc1ccc(C(=O)N2CCN(S(C)(=O)=O)C2)cc1,inactive: 12.5%
9,COc1cccc(N2CCN(C(=O)c3ccc(CS(=O)c4ccc(C)cc4)o3)CC2)c1 (stereo unspecified),inactive: -15.2%
10,COc1ccccc1N1CN(CCc2ccccc2)CNC1=S,inactive: 5.96%
11,CC(C)n1c(SCC(=O)NC2CCCCC2)nnc1-c1ccco1,inactive: -10.8%
12,O=C(CN1CCN(S(=O)(=O)c2ccccc2)CC1)Nc1ccc([N+](=O)[O-])cc1,inactive: 21.1%
13,CCOc1ccc(NC(=O)c2ccccc2O)cc1,inactive: -41.8%
14,COCC(=O)OCC(=O)Nc1ccc(Cl)cc1[N+](=O)[O-],inactive: 27%
15,CCCSc1nc2sc3c(c2c(=O)n1Cc1ccccc1)CC(C)(CC)OC3 (stereo unspecified),inactive: 3.31%
16,COc1ccc(NC(=O)CSc2cc(C)nc3c(-c4ccccc4)cnn23)cc1,inactive: 6.09%
17,COc1ccc(-n2nnc3c(SCC(=O)c4ccccc4)ncnc32)cc1,inactive: 20.4%
18,CSc1cccc(NC(=O)c2ccc(CN3CCc4ccccc4C3)cc2)c1,inactive: 2.08%
